From PubChem BioAssay (NCI)
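Where inhibition never reached the appropriate level, the endpoint shown equals the highest concentration tested. Otherwise, values were interpolated linearly from a five-concentration, 48-hour dose response in 96-well plates. Abbreviation: GI50, concentration required for 50% inhibition of growth. TGI denotes the concentration required for complete inhibition of growth.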

System: NCI-H322M lung
Experiment: DTP human tumour cell line panel, 48 h

For `O=C(Nc1ccccc1)Nc1nc2ccc([N+](=O)[O-])cc2s1`, the GI50 was 2750 nM and the TGI was 13 µM.
In the case of `COc1ccc2c(c1)c(CC(=O)[Se]CC#N)c(C)n2C(=O)c1ccc(Cl)cc1`, the GI50 is reported as 2410 nM and the TGI is reported as 7.4 µM.
`CC(=O)N(O)CCCCCNC(=O)CCC(=O)N(O)CCCCCNC(=O)CCC(=O)N(O)CCCCCN(CCCCCCCCCC[P+](c1ccccc1)(c1ccccc1)c1ccccc1)CCCCCCCCCC[P+](c1ccccc1)(c1ccccc1)c1ccccc1` was tested, and the GI50 was 4160 nM and the TGI was 16.5 µM.
